# Measurements published in paper PMC12136788.
# This is one part of the list.
# T1: UNK ZnF1-6 (called full-length) (human, UniProt Q9C0B0 30-357)
# T1 sequence: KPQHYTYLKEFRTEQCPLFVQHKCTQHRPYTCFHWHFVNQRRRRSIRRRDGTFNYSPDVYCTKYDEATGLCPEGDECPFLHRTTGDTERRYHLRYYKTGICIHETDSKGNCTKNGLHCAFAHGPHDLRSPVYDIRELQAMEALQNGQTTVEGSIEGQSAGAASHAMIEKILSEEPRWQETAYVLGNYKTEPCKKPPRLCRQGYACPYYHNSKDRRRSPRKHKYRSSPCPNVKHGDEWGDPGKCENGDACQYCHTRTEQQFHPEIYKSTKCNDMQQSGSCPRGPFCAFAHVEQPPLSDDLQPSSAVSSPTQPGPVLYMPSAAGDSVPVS
# B1: chr17:21001410:21001511:-|3pUTR|ENSG00000124422|msi1_unk|FALSE|overlapping (ssRNA)
# RNA: GGGAGUUCUACAGUCCGACGAUCUAGUACAACUUUUAGACACAGAAAUCUGAAUGACAUAUAUUGUUCUGUGUCAAGAAACUUAGAUUUUUUUUUUAACUAUUUAAAAACGUGAAACCUAUUCUUAGCUCACAGGCCAUGGAGCAACAGAGGAUUGAGCAUCA
# B2: chr5:37007335:37007444:+|CDS|ENSG00000164190|unk|FALSE|unique (ssRNA)
# RNA: GGGAGUUCUACAGUCCGACGAUCAGGCUUAUUAAGUUCAAAAGCAAAACGGGCUAAAUGUUCUACCCAUAAGCAGAGAGUAAUAGUAAUGCUUUAUAACAAAGUUUGUGACAUUGUUAGCAGCUUAUCAGAAUUGCUAGAGAUCAACAGAGGAUUGAGCAUCA
# B3: ENSG00000198589:be:win_9401|3pUTR|ENSG00000198589|bound_else_gene|NA|bound_elsewhere_windowed (ssRNA)
# RNA: GGGAGUUCUACAGUCCGACGAUCUAGAGGCUACCGGGUGCUGUAUUCAGCAACACCUGUUUUACUAUUUGUUAUUAAACUAUCAUCUCCACCUUCCUUUUGAUUAGCAAUUUGUACUAAGAAACGAAACAAUGUUAUUUGGUGCAACAGAGGAUUGAGCAUCA
# B4: chr12:98549999:98550103:+|3pUTR|ENSG00000120802|unk|FALSE|unique (ssRNA)
# RNA: GGGAGUUCUACAGUCCGACGAUCUGUUUCCCAUACUGUUUUCAGCCUUUUGUUUAUAAUUAGAAAUUGUGAGAAGCUUCAUUUAGUGUUUAAAAAUGUGGGGAGAUAAAUCAGACUUAACAUGUAUGUAAGAUCAAUUCACUUCAACAGAGGAUUGAGCAUCA
# B5: chr10:87753454:87753555:-|3pUTR|ENSG00000138138|msi1|total|mutant (ssRNA)
# RNA: GGGAGUUCUACAGUCCGACGAUCCGUUUAAUGUGAAUUAUAUGUGAAUUUUUUUCAAAAUUUUACUAACCAGAAUUCUGUUACCGGCACCUAACCACGCAGCAUGAGGAAAACGGCACAACACAAUCUUGAGGUGCCUUCUGACAACAGAGGAUUGAGCAUCA
# B6: chr2:65312585:65312700:-|3pUTR|ENSG00000198369|unk|FALSE|unique (ssRNA)
# RNA: GGGAGUUCUACAGUCCGACGAUCUGGACCAGGGCUAGAAUGGGGAUUUCAGGUUUCUAUGAGCCUCCCCAUUACCCCUAAAGUAGAACAUUUUUUAAAUUGUGUUGCCACCACUUCUAAAAAUUUAGCAAUAUUAGAAUAGGACAACAGAGGAUUGAGCAUCA
# B7: ENSG00000198589:be:win_6101|CDS|ENSG00000198589|bound_else_gene|NA|bound_elsewhere_windowed (ssRNA)
# RNA: GGGAGUUCUACAGUCCGACGAUCUAGGAAAUCAGAACUCAGAAAACGAGAUCCUCCUGGAAGGCGAUGAUGAUACUCUGUCAUCCGUGGAUGAGAAAGAUUUAGAGAAUCUUGCCGGUCCUGUUAGCCUGAGCACACCAGCUCCAACAGAGGAUUGAGCAUCA
# B8: chr10:33178043:33178144:-|3pUTR|ENSG00000099250|msi1|total|mutant (ssRNA)
# RNA: GGGAGUUCUACAGUCCGACGAUCAAAUUGGAUUGAGAAUGCCUUUUGUUUCCAGGAAAAUAUUGAUCACCAUGAAAGAAGAACCGUUUUUUGUCCCCAGAGACAUUCAUUCCGUUGAUAUAAUCCUACCAGAAGGAAAGCACUCAACAGAGGAUUGAGCAUCA
# B9: chr6:4943581:4943691:+|CDS|ENSG00000153046|unk|FALSE|bound_elsewhere (ssRNA)
# RNA: GGGAGUUCUACAGUCCGACGAUCUACUUUCAUUCAAUUUAAGAAGCCCAUUAUUGUAGCAGUCAAUGGCCCAGCCAUUGGUCUAGGAGCAUCUAUAUUGCCUCUUUGCGAUGUGGUUUGGGCUAAUGAAAAGGCUUGGUUUCACAACAGAGGAUUGAGCAUCA
# B10: chr19:6534681:6534787:+|CDS|ENSG00000125657|unk|total|mutant (ssRNA)
# RNA: GGGAGUUCUACAGUCCGACGAUCAGAGGACACGAAGGAGCUGGUGGUGGCCAAGGCUGGAGUCUACUAUGUCUUCUUUCAACCCGAGCUGCGGCGCGUGGUGGCCGGCGAGGGCUCAGGCUCCGUUUCACUUGCGCUGCACCUCAACAGAGGAUUGAGCAUCA
# B11: chr16:22286016:22286117:+|3pUTR|ENSG00000103319|msi1|total|mutant (ssRNA)
# RNA: GGGAGUUCUACAGUCCGACGAUCCUGAGCCCAGCCAAGACUUCAGUGUUGACUGCUUUGGAGGCACAAACCCAUGCAAGCGUCCGUUCCAAAGUUCAGUGUGUACCCUUAAAUGAACAAUGAAGCAGGUAAAAUUACCCUUGACAACAGAGGAUUGAGCAUCA
# B12: chr10:62095068:62095169:+|3pUTR|ENSG00000150347|msi1|total|mutant (ssRNA)
# RNA: GGGAGUUCUACAGUCCGACGAUCCCAUUUGCUUCAAUUAAUUAUUUACCUUCCUGUGGAAUAAUAUAUAUAUAUAUAUUUAACCGAACCACCGACCGACCCGCCGAAUUCCGAUUAUAAAUGUGUGAGUGCAGAUUAUCCUGCCAACAGAGGAUUGAGCAUCA
# B13: chr13:49912701:49915062:-|three_prime_utr|ENSG00000123178|control|control|control (ssRNA)
# RNA: GGGAGUUCUACAGUCCGACGAUCACUUGUAUUUCUGCACUGUUAAAAAAUGUUCAUCAUUUAAUAAAACUUUACCUGGCCUAUAGAUGAAAAUAUAUUCUUAAAAAUAUGCUUGUUGAUGCUGUCUAAGGAACCAAUGUAUUCCAACAGAGGAUUGAGCAUCA
# B14: chr20:3864521:3864622:+|CDS|ENSG00000088888|msi1|FALSE|bound_elsewhere (ssRNA)
# RNA: GGGAGUUCUACAGUCCGACGAUCGCCCUGAAAGUGCCUGCCAACCCAGCAUCUGUCAGCACAGUGCCCUCCAAGUUGCCAACUAGCUCAAAGCCCCCUGGUGCAGUGCCUUCUAAUGCGCUCACCAAUCCAGCACCAUCCAAACAACAGAGGAUUGAGCAUCA
# Molecular target: T1, UNK ZnF1-6 (called full-length)
# Assay: nsRBNS (natural sequence RNA bind-n-seq); RBNS binding buffer (assumed for nsRBNS): 25 mM Tris pH 7.5, 150 mM KCl, 3 mM MgCl2, 0.01% Triton X-100, 500 ug/ml BSA, 20 U/ml SUPERase-In, 4 C; UNK is unkempt and MSI1 is Musashi-1; names of the RNAs are library labels; protein concentration not given here; high values mean tight binding
row,Binder,binding signal [enrichment R]
1,B1,24.9
2,B2,0.607
3,B3,1.19
4,B4,6.12
5,B5,0.627
6,B6,13.9
7,B7,0.619
8,B8,0.305
9,B9,0.53
10,B10,1.25
11,B11,0.466
12,B12,2.12
13,B13,1.76
14,B14,0.799
